This passage reports binding results from article PMC3924036.

Common to all, as to assay: cross-linking + pull-down; formaldehyde in vivo cross-linking, His-tagged bait purified by affinity chromatography, cross-links reversed at 95°C; eluates analysed by SDS-PAGE and Western blotting (SecA, DivIVA, GFP antisera)
Background: A western blot detects proteins with antibodies after separation by electrophoresis.

Experiment [1] deals with SecA-His (strain BSN131) (B. subtilis) (UniProt P28366).
The target of experiment [2] is T1, DivIVA-GFP-His-tag fusion (strain 3308) (B. subtilis) (UniProt P71021).
T1 sequence: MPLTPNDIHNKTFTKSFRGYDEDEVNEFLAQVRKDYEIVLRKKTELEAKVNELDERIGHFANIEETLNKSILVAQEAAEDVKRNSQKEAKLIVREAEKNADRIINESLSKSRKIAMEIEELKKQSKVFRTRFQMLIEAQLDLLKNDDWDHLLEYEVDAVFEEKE

For experiment [3], the target named is T2, His-DivIVA fusion (strain BSN50) (B. subtilis) (UniProt P71021).
T2 sequence: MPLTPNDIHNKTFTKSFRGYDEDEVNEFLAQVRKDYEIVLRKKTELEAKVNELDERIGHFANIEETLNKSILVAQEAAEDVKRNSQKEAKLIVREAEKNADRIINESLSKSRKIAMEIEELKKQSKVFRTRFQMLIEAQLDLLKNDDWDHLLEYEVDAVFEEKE

These are yes or no findings as the source states them, for the method shown. In cells and extracts the contact can be indirect. Some entries that bind do so weakly or less than the wild type. For some assays here: Where a sequence is shown, tags or fusion partners need not be part of it.

In the case of “elongation factor Tu (TufA) (from UniProt P33166 1-396)”, the binding entry in experiment [1] is listed as “no binding”.

Take “secretion ATPase SecA (from UniProt P28366 1-841) (enzyme)”: the binding result in experiment [2] and in experiment [3] was “binds” throughout.

B1: DivIVA (protein, UniProt P71021 1-164)
chain: MPLTPNDIHNKTFTKSFRGYDEDEVNEFLAQVRKDYEIVLRKKTELEAKVNELDERIGHFANIEETLNKSILVAQEAAEDVKRNSQKEAKLIVREAEKNADRIINESLSKSRKIAMEIEELKKQSKVFRTRFQMLIEAQLDLLKNDDWDHLLEYEVDAVFEEKE
Consider B1, for which, in experiment [1], the binding result is “binds”.

B2: SecY (protein, UniProt P16336 1-431)
chain: MFKTISNFMRVSDIRNKIIFTLLMLIVFRIGAFIPVPYVNAEALQAQSQMGVFDLLNTFGGGALYQFSIFAMGITPYITASIIIQLLQMDVVPKFTEWSKQGEVGRRKLAQFTRYFTIVLGFIQALGMSYGFNNLANGMLIEKSGVSTYLIIALVLTGGTAFLMWLGEQITSHGVGNGISIIIFAGIVSSIPKTIGQIYETQFVGSNDQLFIHIVKVALLVIAILAVIVGVIFIQQAVRKIAIQYAKGTGRSPAGGGQSTHLPLKVNPAGVIPVIFAVAFLITPRTIASFFGTNDVTKWIQNNFDNTHPVGMAIYVALIIAFTYFYAFVQVNPEQMADNLKKQGGYIPGVRPGKMTQDRITSILYRLTFVGSIFLAVISILPIFFIQFAGLPQSAQIGGTSLLIVVGVALETMKQLESQLVKRNYRGFMKN
For the molecule B2, the binding result in experiment [1] is “binds”.
